{"source": "paper PMC5836133", "note": "The list shows a part of the results. At the low end of the ranking the order means little.", "data": [{"tested_on": "T1, GST-NbGlk1(82-244)", "T1 sequence": "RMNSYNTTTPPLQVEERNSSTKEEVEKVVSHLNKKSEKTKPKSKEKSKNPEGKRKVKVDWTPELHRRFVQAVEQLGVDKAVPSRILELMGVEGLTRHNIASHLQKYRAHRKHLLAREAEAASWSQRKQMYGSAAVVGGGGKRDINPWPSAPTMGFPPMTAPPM", "assay": "protein-binding microarray;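 also: rank-based score ranging −0.5 to +0.5 with E above 0.45 taken as significant binding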", "details": "NbGlk1 is a Golden2-like transcription factor of Nicotiana benthamiana; high values mean tight binding; most listed sequences are background and not binding sites; double strand, one strand shown", "units": {"binding signal": "E-score"}, "values": [{"sequence": "ACTGAAGC", "binding signal": -0.171}, {"sequence": "ACGGGTGG", "binding signal": -0.0302}, {"sequence": "AGCGGAGG", "binding signal": -0.255}, {"sequence": "AACATTGG", "binding signal": -0.00303}, {"sequence": "ACCGCCGT", "binding signal": -0.12}, {"sequence": "ACTCCCAT", "binding signal": -0.00838}, {"sequence": "AACTAGCT", "binding signal": -0.161}, {"sequence": "ATGTTCTC", "binding signal": -0.0444}, {"sequence": "ATGAATCC", "binding signal": 0.152}, {"sequence": "ACGCCAGA", "binding signal": -0.0449}, {"sequence": "AGGGCACT", "binding signal": -0.226}, {"sequence": "AGTCTACA", "binding signal": -0.0279}, {"sequence": "ATTAGCAG", "binding signal": 0.065}, {"sequence": "ATAGGTGA", "binding signal": -0.041}, {"sequence": "AGTTCAAG", "binding signal": 0.0311}, {"sequence": "AGCAGTCG", "binding signal": -0.264}, {"sequence": "ATTTCGAA", "binding signal": 0.316}, {"sequence": "CACACCGC", "binding signal": -0.182}, {"sequence": "ACCACCTA", "binding signal": -0.144}, {"sequence": "AACAAACG", "binding signal": 0.0695}, {"sequence": "AACGCGGA", "binding signal": -0.000563}, {"sequence": "ATCCAAGA", "binding signal": 0.217}, {"sequence": "ACTCTCAA", "binding signal": -0.184}, {"sequence": "AGTGTGGC", "binding signal": -0.181}, {"sequence": "ATGCATCC", "binding signal": -0.171}, {"sequence": "ACAGAAAC", "binding signal": 0.0167}, {"sequence": "CACTGTCC", "binding signal": -0.0677}, {"sequence": "AGGTACAT", "binding signal": -0.0849}, {"sequence": "AGAGCTGC", "binding signal": -0.132}, {"sequence": "ACAGCATG", "binding signal": -0.137}, {"sequence": "AAAGTGAG", "binding signal": -0.0345}, {"sequence": "CAACTCGA", "binding signal": -0.0359}, {"sequence": "AATCGCAC", "binding signal": 0.296}, {"sequence": "AATGACAT", "binding signal": 0.031}, {"sequence": "AAACTCAC", "binding signal": -0.141}, {"sequence": "ACGGTTGG", "binding signal": -0.00198}, {"sequence": "AAGAGAAA", "binding signal": 0.0302}, {"sequence": "AAGAACTC", "binding signal": -0.0904}, {"sequence": "AGAGTGAA", "binding signal": -0.13}, {"sequence": "AAATCCTT", "binding signal": 0.392}, {"sequence": "AGCGCACG", "binding signal": -0.298}, {"sequence": "AAAGGACC", "binding signal": -0.129}, {"sequence": "CAAAGCCC", "binding signal": -0.296}, {"sequence": "ACCACCTC", "binding signal": -0.245}, {"sequence": "AACAGTGT", "binding signal": -0.0872}, {"sequence": "AAAGAGAA", "binding signal": 0.0595}, {"sequence": "ACAATCGC", "binding signal": 0.195}, {"sequence": "AGATAAGC", "binding signal": 0.0217}, {"sequence": "AGTTTACA", "binding signal": -0.0263}, {"sequence": "ATTTTGCG", "binding signal": 0.293}, {"sequence": "ACATCAGA", "binding signal": 0.0735}, {"sequence": "ACGCTCCT", "binding signal": -0.0521}, {"sequence": "ACCTTAAG", "binding signal": -0.102}, {"sequence": "AGGGTTTG", "binding signal": -0.0538}, {"sequence": "AGGCATGA", "binding signal": -0.215}, {"sequence": "AAACTCAG", "binding signal": -0.0439}, {"sequence": "ATTGGCCC", "binding signal": -0.18}, {"sequence": "ACTCAGAC", "binding signal": -0.109}, {"sequence": "AGGTTCCG", "binding signal": -0.269}, {"sequence": "ACTACACG", "binding signal": 0.0585}, {"sequence": "ACCTAACA", "binding signal": -0.0737}, {"sequence": "ACATTGGG", "binding signal": -0.107}, {"sequence": "ACTTGTGG", "binding signal": -0.155}, {"sequence": "CACACTGA", "binding signal": 0.0127}, {"sequence": "AGGAACAC", "binding signal": -0.105}, {"sequence": "ACCGAGGT", "binding signal": -0.272}, {"sequence": "CAAGGCCG", "binding signal": -0.253}, {"sequence": "AGATGGGG", "binding signal": -0.229}, {"sequence": "AAGTCTGA", "binding signal": -0.167}, {"sequence": "AATTAACG", "binding signal": -0.000446}, {"sequence": "CAGCGGTC", "binding signal": -0.282}, {"sequence": "ATATTTAA", "binding signal": 0.248}, {"sequence": "AGTTTCAA", "binding signal": 0.00983}, {"sequence": "AAAAAACA", "binding signal": 0.0544}, {"sequence": "AAAGATGT", "binding signal": -0.0566}, {"sequence": "AACCTATG", "binding signal": -0.0262}, {"sequence": "CACCATTA", "binding signal": 0.00511}, {"sequence": "AGCGATTC", "binding signal": 0.253}, {"sequence": "AATAGGCG", "binding signal": -0.0906}, {"sequence": "AAGTTCGC", "binding signal": -0.0624}, {"sequence": "ACTGAGGG", "binding signal": -0.137}, {"sequence": "AGGGTGAG", "binding signal": -0.24}, {"sequence": "CACGGCAA", "binding signal": 0.0434}, {"sequence": "CAAGGTCC", "binding signal": -0.181}, {"sequence": "CAGCCAGC", "binding signal": -0.232}, {"sequence": "CAAGTGGC", "binding signal": -0.244}, {"sequence": "AGTACCGG", "binding signal": -0.236}, {"sequence": "ATGAGCGA", "binding signal": -0.0109}, {"sequence": "ATCATCTC", "binding signal": 0.126}, {"sequence": "AAAATCGG", "binding signal": 0.363}, {"sequence": "AGGTGTTC", "binding signal": -0.0481}, {"sequence": "CAAGACAC", "binding signal": -0.211}, {"sequence": "ATTCCCAA", "binding signal": 0.344}, {"sequence": "ATGGTGAA", "binding signal": 0.0127}, {"sequence": "AGGGGCAA", "binding signal": -0.137}, {"sequence": "CAGCGCAA", "binding signal": 0.175}, {"sequence": "ACTTCTCG", "binding signal": 0.0482}, {"sequence": "ACTCTCCA", "binding signal": -0.0331}, {"sequence": "ATACACGG", "binding signal": 0.0444}, {"sequence": "ATAGTGAG", "binding signal": 0.0895}, {"sequence": "AGGGCGAC", "binding signal": -0.182}, {"sequence": "AGACGGAT", "binding signal": 0.161}, {"sequence": "ACCCACAC", "binding signal": -0.0662}, {"sequence": "AACTAATG", "binding signal": -0.0154}, {"sequence": "AGGGGACA", "binding signal": -0.214}, {"sequence": "ACGACTGC", "binding signal": -0.112}, {"sequence": "AGGCTTGG", "binding signal": -0.265}, {"sequence": "ACTCGCCC", "binding signal": -0.146}, {"sequence": "CAAAAGTG", "binding signal": -0.115}, {"sequence": "AATAAAGT", "binding signal": 0.0436}, {"sequence": "ACAGAAGA", "binding signal": 0.131}, {"sequence": "CACATTAC", "binding signal": 0.0958}, {"sequence": "AACGTCTA", "binding signal": -0.143}, {"sequence": "CACTGAGA", "binding signal": 0.104}, {"sequence": "ACGCCCGA", "binding signal": -0.0754}, {"sequence": "ACCTAGTC", "binding signal": -0.178}, {"sequence": "AATTTAAA", "binding signal": 0.226}, {"sequence": "ACGTCCAT", "binding signal": -0.0411}, {"sequence": "ACTTGCCA", "binding signal": -0.0718}, {"sequence": "ATGGCGCG", "binding signal": -0.132}, {"sequence": "ACCACACA", "binding signal": -0.0288}, {"sequence": "ATCCTTAC", "binding signal": 0.266}, {"sequence": "ACATATCC", "binding signal": 0.214}, {"sequence": "ATTCTGAA", "binding signal": 0.187}, {"sequence": "AACGACAG", "binding signal": -0.0685}, {"sequence": "ACCCCGTC", "binding signal": -0.233}, {"sequence": "ACCGGGTC", "binding signal": -0.243}, {"sequence": "AATGGCTA", "binding signal": -0.0762}, {"sequence": "ATACGGAT", "binding signal": 0.331}, {"sequence": "AAACTTCC", "binding signal": -0.174}, {"sequence": "AATAAGGT", "binding signal": -0.113}, {"sequence": "ATTCAGTA", "binding signal": 0.141}, {"sequence": "AACACGGG", "binding signal": -0.0136}, {"sequence": "CAAGGGGG", "binding signal": -0.107}, {"sequence": "ACTATGAA", "binding signal": 0.0289}, {"sequence": "ACAAAGAA", "binding signal": 0.101}, {"sequence": "CAAATTCA", "binding signal": 0.203}, {"sequence": "AAATCAGT", "binding signal": 0.272}, {"sequence": "ATCCGTCA", "binding signal": 0.198}, {"sequence": "ACCGTTGC", "binding signal": -0.125}, {"sequence": "CACACACG", "binding signal": -0.191}, {"sequence": "CAAAGTCG", "binding signal": -0.125}, {"sequence": "ACATATCA", "binding signal": 0.216}, {"sequence": "ACTTTGAT", "binding signal": 0.036}, {"sequence": "ATAAAGTG", "binding signal": -0.0588}, {"sequence": "AGTACAGA", "binding signal": -0.00339}, {"sequence": "AGAGGGGA", "binding signal": -0.0871}, {"sequence": "AGAGAGTC", "binding signal": -0.182}, {"sequence": "AGCGGGGG", "binding signal": -0.279}, {"sequence": "ACTTGATG", "binding signal": -0.174}, {"sequence": "AGAAGATG", "binding signal": -0.0518}, {"sequence": "ACAAGAAA", "binding signal": 0.00851}, {"sequence": "AGGTCCGA", "binding signal": -0.0931}, {"sequence": "AAGGACGA", "binding signal": -0.0926}, {"sequence": "AATGATGC", "binding signal": -0.084}, {"sequence": "ACAGTGAT", "binding signal": 0.0821}, {"sequence": "AGACTACC", "binding signal": -0.143}, {"sequence": "AGCACCCC", "binding signal": -0.156}, {"sequence": "CAGCACTC", "binding signal": -0.0712}, {"sequence": "AATAGGAC", "binding signal": -0.12}, {"sequence": "ACTGACCT", "binding signal": -0.221}, {"sequence": "AGTTTTAC", "binding signal": 0.017}, {"sequence": "AACGGAGT", "binding signal": -0.114}, {"sequence": "AAGCTTTC", "binding signal": -0.088}, {"sequence": "AGCTTAGA", "binding signal": -0.0641}, {"sequence": "CAACGATA", "binding signal": 0.106}, {"sequence": "AGGGGAGA", "binding signal": 0.0253}, {"sequence": "AGATCTTC", "binding signal": 0.428}, {"sequence": "AGTCTCGC", "binding signal": -0.146}, {"sequence": "AGTTGCAC", "binding signal": -0.131}, {"sequence": "AGTTAACA", "binding signal": -0.00467}, {"sequence": "AGGATGAT", "binding signal": 0.0685}]}]}
